Out of some 230,000 compounds screened, about 1,500 (0.65%) were called active. Inconclusive means that the source gave no clear call. Such entries were picked first, then a sample of the others. Calls follow the shape of the dose curve; as a rule, active = well fitted inhibition curve with a large enough effect; inconclusive = small, poorly fitted or top-dose-only effect; inactive = no such curve, though single readings can be large or run the other way. Where the call is inconclusive, the potency comes from a doubtful curve fit.
target: Lethal(3)malignant brain tumor-like protein 1 (Homo sapiens) (UniProt Q9Y468); test: qHTS Assay for the Inhibitors of L3MBTL1; details: AlphaScreen L3MBTL1–H3K9me1 peptide binding; activity, negative = inhibition: at 57.1 µM (top of the series); also: nearly all actives have a fitted effect of over 60% in size
Sequence of UniProt Q9Y468 (Q9Y468 whole entry, looked up): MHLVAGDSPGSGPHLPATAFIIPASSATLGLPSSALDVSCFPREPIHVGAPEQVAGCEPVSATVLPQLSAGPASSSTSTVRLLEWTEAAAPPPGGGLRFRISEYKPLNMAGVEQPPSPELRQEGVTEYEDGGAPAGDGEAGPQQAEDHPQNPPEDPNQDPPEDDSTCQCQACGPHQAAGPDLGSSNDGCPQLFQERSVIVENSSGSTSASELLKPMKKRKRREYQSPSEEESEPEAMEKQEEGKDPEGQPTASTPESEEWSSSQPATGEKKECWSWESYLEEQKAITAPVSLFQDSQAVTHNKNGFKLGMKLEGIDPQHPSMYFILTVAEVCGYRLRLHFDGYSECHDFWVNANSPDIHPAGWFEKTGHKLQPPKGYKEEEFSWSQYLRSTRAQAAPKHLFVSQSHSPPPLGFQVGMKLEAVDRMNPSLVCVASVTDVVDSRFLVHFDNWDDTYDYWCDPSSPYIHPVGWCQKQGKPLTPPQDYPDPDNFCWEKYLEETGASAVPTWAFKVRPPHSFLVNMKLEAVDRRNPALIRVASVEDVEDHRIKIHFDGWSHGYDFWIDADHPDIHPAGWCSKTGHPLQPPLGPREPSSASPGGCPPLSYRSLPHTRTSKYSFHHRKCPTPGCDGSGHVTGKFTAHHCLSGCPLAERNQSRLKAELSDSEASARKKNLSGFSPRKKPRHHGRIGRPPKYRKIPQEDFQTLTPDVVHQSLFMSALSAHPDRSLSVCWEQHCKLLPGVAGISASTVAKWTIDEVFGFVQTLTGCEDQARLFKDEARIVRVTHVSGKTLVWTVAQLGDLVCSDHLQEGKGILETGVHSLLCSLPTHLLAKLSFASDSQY
Summary of the method: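 L3MBTL1 (50 nM) pre-complexed 30 min with biotinylated H3(1-15)K9me1 peptide (75 nM), then compounds added for 30 min at room temperature; AlphaScreen streptavidin donor/nickel chelate acceptor beads (10 ug/mL final) read after 30 min dark incubation.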
% is scaled to controls: 0 for no effect and ±100 for the full control effect; potency is read from the fitted curve at half-maximal effect; tags tell the direction and shape of the fitted curve.

Structure (SMILES) | Potency | activity, negative = inhibition
CC1=C/C(=N\Nc2ccccc2[N+](=O)[O-])CC(C)(C)C1 | active: 14.1 µM | –
C#CCOCCOCCOCCNc1nc(N2CCN(C(=O)[C@H](CCCCN)n3cc([C@@H](N)C(C)CC)nn3)CC2)nc(N2CCN(C(=O)[C@H](Cc3ccc(O)cc3)n3cc([C@@H](N)C(C)CC)nn3)CC2)n1 (stereo partly specified) | inconclusive: 7.08 µM [inhibitor, partial curve] | –
O=C(NCc1cccnc1)NC1CCCN1S(=O)(=O)c1ccc(Cl)cc1 (stereo unspecified) | inconclusive: 7.08 µM [inhibitor, single point] | –
COc1ccc(C(=O)Nc2nc3ccc(S(C)(=O)=O)cc3s2)cc1 | – | inactive: 8.93%
CC(C)Sc1nc2c(cnn2-c2ccccc2)c(=O)[nH]1 | inconclusive: 39.8 µM [inhibitor, single point] | –
O=C(O)c1cccc(N/N=C(\N=Nc2ccccc2)c2ccccc2)c1 | inconclusive: 28.2 µM [inhibitor, partial curve] | –
CC(C)C[C@H]1C(=O)N2CCC[C@H]2[C@]2(O)O[C@](NC(=O)[C@@H]3C=C4c5cccc6[nH]c(Br)c(c56)CC4N(C)C3)(C(C)C)C(=O)N12 (stereo partly specified) | – | inactive: -9.72%
O=C1C=C(NCCN2CCOCC2)C(=O)c2cnccc21 | inconclusive: 25.1 µM [inhibitor, partial curve, poor fit] | –
CC1Cc2ccccc2N1C(=O)c1ccc(N2CCCC2)c([N+](=O)[O-])c1 (stereo unspecified) | inconclusive: 15.8 µM [inhibitor, partial curve] | –
CCC(c1nnc(SCC(=O)Nc2cc(C)on2)o1)N(C)C (stereo unspecified) | – | inactive: -12%
C/C(=N\NC(=O)c1cc(-c2cccc([N+](=O)[O-])c2)n[nH]1)c1ccccc1O | inconclusive: 3.98 µM [inhibitor, full curve] | –
CN1CCN(c2ccc(Cl)cc2NC(=O)C2COc3ccccc3O2)CC1 (stereo unspecified) | inconclusive: 39.8 µM [inhibitor, single point] | –
O=C(O)CCc1ccc(S(=O)(=O)Nc2cc(C(F)(F)F)ccc2N2CCCC2)cc1 | inconclusive: 39.8 µM [inhibitor, single point] | –
COCCCn1c(C)cc(C(=O)CN2c3cccc4cccc(c34)S2(=O)=O)c1C | inconclusive: 31.6 µM [inhibitor, single point] | –
O=C1CCCC2=C1C(c1ccccc1)C1C(=O)c3ccccc3C1=N2 (stereo unspecified) | inconclusive: 39.8 µM [inhibitor, single point] | –
CCn1c(-c2cc(-c3ccccc3)sc2N)n[nH]c1=S | – | inactive: -17%
CN1CCS/C1=C/C=C1\SC(=S)N(CC(=O)O)C1=O | inconclusive: 31.6 µM [inhibitor, partial curve] | –
COCCNC(C(=O)Nc1ccc([N+](=O)[O-])cc1Br)c1ccccc1 (stereo unspecified) | – | inactive: -8.86%
COc1ccccc1/C=C/C(=C1/C(=O)N(c2ccccc2)N=C1C)c1ccc(C)cc1 | – | inactive: -10%
Cc1cccc(C(=O)Nc2nnc(C3=COCCO3)o2)c1 | inconclusive: 28.2 µM [inhibitor, partial curve] | –
CCN1C(=O)CSC1=Nc1ccccc1Cl | inconclusive: 6.31 µM [inhibitor, single point] | –
C/C=C/c1ccc(OCCCCOc2c(OC)cccc2OC)c(OC)c1 | – | inactive: 25.7%
NC(=O)CSc1nnc(Cn2c(=O)sc3ccccc32)n1-c1ccccc1 | – | inactive: 5.55%
CCOC(=O)c1cc2c(nc1NC(=S)Nc1ccccc1)CC(C)(C)OC2 | inconclusive: 6.31 µM [inhibitor, single point] | –

Structure (SMILES) | Potency | activity, negative = inhibition
CCOc1ccc(NC(=O)CN(C)Cc2cc(=O)n3c(-c4ccccc4)csc3n2)cc1OCC | inconclusive: 25.1 µM [inhibitor, single point] | –
CN(C)CCCN(C(=O)c1cc2cc([N+](=O)[O-])ccc2s1)c1nc2cc3c(cc2s1)OCCO3 | – | inactive: -10.7%
C=CCNC(=S)NC(=O)c1csc([N+](=O)[O-])c1 | – | inactive: -19.8%
CCOc1ccc(NC(=O)CN(C)C(=O)C2CC(=O)N(Cc3ccco3)C2)cc1OCC (stereo unspecified) | inconclusive: 0.794 µM [inhibitor, single point] | –
CSC1=N/C(=C\c2ccc(C)o2)C(=O)S1 | active: 28.2 µM | –
Cc1cccc(NC(=O)C2CCCN2C(=O)Oc2ccccc2)c1C (stereo unspecified) | inconclusive: 11.2 µM [inhibitor, partial curve] | –
Cc1c(Cl)cccc1NC(=O)C1=COCCO1 | – | inactive: -9.26%
CCN(CC(=O)Nc1c(C(=O)OC)[nH]c2ccc(C)cc12)c1ccc2c(c1)OCO2 | inconclusive: 14.1 µM [inhibitor, single point] | –
Cc1cc(=O)[nH]c(N/N=C/c2ccccn2)n1 | inconclusive: 25.1 µM [inhibitor, single point] | –
Cc1cc(C(=O)O)ccc1-n1c(C)cc(C=C2C(=O)c3ccccc3C2=O)c1C | inconclusive: 35.5 µM [inhibitor, partial curve] | –
COc1ccccc1OCC(=O)NCCCn1ccnc1 | inconclusive: 0.355 µM [inhibitor, full curve] | –
Nc1ccc(OCc2ccccc2)cc1 | inconclusive: 3.55 µM [inhibitor, full curve, poor fit] | –
CCOc1cc(C2CC(=O)NC3=C2C(=O)C(C(=O)OC)C(C)C3)cc(Cl)c1O (stereo unspecified) | – | inactive: -4.14%
C[C@H]1COC(=O)[C@@H](NC(=O)OCC2c3ccccc3-c3ccccc32)C/C=C\C[C@H](CC(=O)NCCO)C(=O)N1 | – | inactive: 7.16%
Nc1nnc(CC(=O)N/N=C\c2cc([N+](=O)[O-])ccc2O)s1 | inconclusive: 39.8 µM [inhibitor, single point] | –
CCN(CC)CCCNC(=O)c1ccc2c3n(nc2c1)-c1ccc(Cl)cc1CO3 | – | inactive: -9.32%
CC(=O)/C(=N\Nc1ccccc1)Sc1nnc(-c2ccccc2)n1-c1ccccc1 | – | inactive: 5.76%
Cc1ccc(/C=C2\SC(=S)N(C3CCS(=O)(=O)C3)C2=O)o1 (stereo unspecified) | active: 25.1 µM | –
CC1=CC(C)(C)Nc2ccc(Cc3ccc4c(c3)C(C)=CC(C)(C)N4)cc21 | inconclusive: 15.8 µM [inhibitor, partial curve] | –
Cc1cccc(N=Nc2c(C)nn(-c3ccccc3)c2N)c1C | inconclusive: 15.8 µM [inhibitor, partial curve] | –
CCOC(=O)c1c(NC(=O)NC(C)(C)C)sc2c1CCN(C)C2 | inconclusive: 25.1 µM [inhibitor, single point] | –
CCn1c(SCC(=O)N2CCCc3ccccc32)nnc1-c1c[nH]c2ccccc12 | inconclusive: 35.5 µM [inhibitor, single point] | –
c1ccc(-c2onc(-c3ccco3)c2-c2ccc3[nH]ccc3c2)cc1 | inconclusive: 31.6 µM [inhibitor, single point] | –
CCN1CCN(c2cc3c(nn2)Oc2ccccc2N3C)CC1 | – | inactive: 0.141%

Structure (SMILES) | Potency | activity, negative = inhibition
O=C(CCCc1nc2ccccc2s1)NCc1ccccc1 | – | inactive: 1.59%
Cc1cc(C)c2c(N)c3cccc(C)c3nc2n1 | – | inactive: -4.98%
COCCOC(=O)c1c(NC(=O)CNCc2ccco2)sc(C(N)=O)c1C | inconclusive: 39.8 µM [inhibitor, partial curve, poor fit] | –
COc1ccc(S(=O)(=O)N(C)C)cc1NC(=O)COC(=O)CC1CCCC1 | inconclusive: 35.5 µM [inhibitor, single point] | –
N#Cc1c(N2CCCC(O)C2)nc(N)c2c(N)nc3c(c12)CC(=O)N3C12CC3CC(CC(C3)C1)C2 (stereo unspecified) | inconclusive: 11.2 µM [inhibitor, partial curve] | –
S=c1[nH]c2cc3c(cc2[nH]1)OCCO3 | – | inactive: -0.0494%
CCN1CCN(C(=O)c2cn(CC)c3ccc(S(=O)(=O)N(C)C)cc3c2=O)CC1 | inconclusive: 0.891 µM [inhibitor, full curve, poor fit] | –
C=CCN1C(=O)CSC1=Nc1ccc(C(=O)O)cc1 | – | inactive: 5.82%
O=C(COC(=O)c1ccc(Cl)c(S(=O)(=O)N2CCCC2)c1)NCc1ccccc1 | – | inactive: -12.8%
CC(C)CN1C(=O)C(=O)N(CC(=O)c2ccc3c(c2)CCCC3)C1=O | – | inactive: 11.3%
CCN(CC)S(=O)(=O)c1ccc(NN=C2CCN(C)CC2)c([N+](=O)[O-])c1 | inconclusive: 25.1 µM [inhibitor, single point] | –
CCOC(=O)C1=C(N)OC2=C(C(=O)CC(C)(C)C2)C1c1cccs1 (stereo unspecified) | inconclusive: 8.91 µM [inhibitor, single point] | –
O=C(O)/C=C/C(=O)NNC(=O)c1cc(-c2ccccc2)n[nH]1 | inconclusive: 25.1 µM [inhibitor, single point] | –
COc1cc2[nH]c(=S)n(CCN3CCOCC3)c(=O)c2cc1OC | – | inactive: -6.46%
Cc1ccc(NC(=O)CNS(=O)(=O)c2cccs2)cc1F | – | inactive: 1.13%
Cc1ccc(C)c(OCC(=O)Nc2cc(NC(=O)COc3cc(C)ccc3C)cc(C(=O)O)c2)c1 | – | inactive: 0.816%
Cc1cc(=O)oc2cc(OCC(=O)N3c4ccccc4NC(=O)C3(C)C)ccc12 | inconclusive: 39.8 µM [inhibitor, single point] | –
Cc1cc2c(cc1C)N(C(=O)CSC1=NCCS1)C(C)(C)c1ssc(=S)c1-2 | inconclusive: 14.1 µM [inhibitor, partial curve] | –
O=C(Nc1sc2c(c1C(=O)O)CCC2)c1ccc(F)cc1 | inconclusive: 39.8 µM [inhibitor, single point] | –
CN1CCN(c2cc(-c3cc(O)c4ncccc4c3)ccn2)CC1 | active: 28.2 µM | –
CCN(CC)C(=O)CSc1nc(C)cc(-c2cccs2)c1C#N | inconclusive: 0.794 µM [inhibitor, single point] | –
O=Cc1ccc(O)c2ncccc12 | active: 3.98 µM | –
CC(C(=O)O)N1C(=O)/C(=C/C=C/c2ccco2)SC1=S (stereo unspecified) | active: 1.12 µM | –

— PubChem BioAssay AID485360 (National Center for Advancing Translational Sciences (NCATS), 2010)
